# Article PMC4336329 (PLoS ONE, 2015)
# Out of some 310,000 compounds screened, about 14,000 (4.5%) showed an effect of 50% or more. The effect is printed as a negative number. Some of the results follow.
# Target: human ether-à-go-go-related gene (hERG) potassium channel (human, UniProt Q12809)
# Assay: primary screen, population patch clamp on CHO cells stably expressing hERG
# 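Further: peak tail current of the secondary pulse compared with the same well before compound.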
# Chain of human ether-à-go-go-related gene (hERG) potassium channel (Q12809 whole entry, looked up): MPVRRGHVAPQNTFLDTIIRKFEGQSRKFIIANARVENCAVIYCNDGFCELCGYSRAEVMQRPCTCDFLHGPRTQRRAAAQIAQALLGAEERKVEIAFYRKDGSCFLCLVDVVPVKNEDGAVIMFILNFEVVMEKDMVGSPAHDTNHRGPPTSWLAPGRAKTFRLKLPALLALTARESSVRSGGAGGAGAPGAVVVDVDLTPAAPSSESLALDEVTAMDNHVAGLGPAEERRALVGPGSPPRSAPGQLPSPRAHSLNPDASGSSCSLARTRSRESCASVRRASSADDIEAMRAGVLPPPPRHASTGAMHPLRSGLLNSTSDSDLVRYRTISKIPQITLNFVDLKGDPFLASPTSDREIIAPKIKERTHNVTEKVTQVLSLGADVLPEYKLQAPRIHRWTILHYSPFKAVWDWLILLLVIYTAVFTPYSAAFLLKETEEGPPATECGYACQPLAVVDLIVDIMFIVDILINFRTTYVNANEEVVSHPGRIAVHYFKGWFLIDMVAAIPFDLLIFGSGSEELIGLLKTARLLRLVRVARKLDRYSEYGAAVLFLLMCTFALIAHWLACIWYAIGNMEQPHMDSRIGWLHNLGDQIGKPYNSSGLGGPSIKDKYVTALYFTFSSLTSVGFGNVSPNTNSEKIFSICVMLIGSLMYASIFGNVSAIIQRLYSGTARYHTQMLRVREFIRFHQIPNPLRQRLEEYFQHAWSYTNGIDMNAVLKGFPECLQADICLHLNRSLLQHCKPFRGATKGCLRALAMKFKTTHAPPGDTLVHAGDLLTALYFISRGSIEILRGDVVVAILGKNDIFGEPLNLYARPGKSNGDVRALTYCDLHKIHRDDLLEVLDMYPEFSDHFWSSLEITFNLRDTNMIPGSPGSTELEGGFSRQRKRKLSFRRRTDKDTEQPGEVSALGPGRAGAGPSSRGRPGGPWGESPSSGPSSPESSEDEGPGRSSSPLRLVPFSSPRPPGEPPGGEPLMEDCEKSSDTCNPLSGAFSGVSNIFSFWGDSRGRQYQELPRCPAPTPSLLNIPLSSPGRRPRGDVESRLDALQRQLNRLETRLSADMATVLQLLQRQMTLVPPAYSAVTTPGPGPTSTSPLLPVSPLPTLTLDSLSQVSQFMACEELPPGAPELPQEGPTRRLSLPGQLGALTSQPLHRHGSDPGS
row,SMILES,"hERG current change (%, negative = inhibition) at 10uM [%]"
1,O=C(Cn1cnc2ccccc2c1=O)NCc1ccc2c(c1)OCO2,1.92
2,Cc1ccc(OCCCCN2CCC(C)CC2)c(Br)c1.O=C(O)C(=O)O,-63.1
3,O=C(CSc1nnc(CNC(=O)c2ccc(F)cc2)o1)NCc1ccc2c(c1)OCO2,6.79
4,Cc1noc(C)c1COc1ccc(C(=O)NCc2ccccn2)cc1,19
5,CC(=O)Nc1ccc(S(=O)(=O)N2CCCC2C(=O)O)cc1 (stereo not drawn),5.17
6,COc1ccccc1CCNC(=O)C1CCC(=O)N(Cc2ccccc2OC)C1 (stereo not drawn),-13.2
7,O=C(CN1C2CCCC1CC(NC(=O)c1ccccc1)C2)Nc1ccccc1 (stereo not drawn),-50.7
8,CCCCCNS(=O)(=O)c1cc(C)ccc1OC,1.08
9,COc1ccc([C@H]2CC(=O)C=C(c3cc4ccccc4c4ccccc34)C2)cc1,13.6
10,COc1cccc(NC(=O)CCNS(=O)(=O)c2cccc3nsnc23)c1,1.56
11,CN(C)CCCN(C(=O)c1ccco1)c1nc(-c2ccc(Cl)cc2)cs1.Cl,-72.5
12,O=C1NCCCC1C(=O)Nc1cccc(C(F)(F)F)c1 (stereo not drawn),-8.78
13,COc1ccc(NC(=S)N2CCC(C(=O)N3CCCCCC3)CC2)cc1,12.7
14,CC(=O)[C@@]12O[C@@H]1C[C@H]1[C@@H]3CC[C@H]4C[C@@H](O)CC[C@]4(C)[C@H]3CC[C@@]12C,16.9
15,CCOC(=O)c1oc2ccccc2c1CSc1nnnn1-c1ccccc1,0.684
16,NC(=O)c1ccc(NCCc2ccccc2)c([N+](=O)[O-])c1,-23
17,O=C(Nc1ccccc1N1CCOCC1)c1cc(F)cc(F)c1,0.229
18,O=C(Nc1nccs1)c1cc([N+](=O)[O-])ccc1Cl,12.8
19,COc1ccc(-c2cc(C(=O)OC3CCOC3=O)c3ccccc3n2)cc1OC (stereo not drawn),2.82
20,Cc1ccc(/C=N/N=C2/NC(=O)C(CC(=O)Nc3ccc(Cl)cc3)S2)o1 (stereo not drawn),8.8
21,Cc1cccc(NC(=S)NC(C)C(c2ccccc2)N2CCN(C)CC2)c1C (stereo not drawn),-50
22,CC(Oc1ccc(Br)cc1)C(=O)Nc1ccc(S(=O)(=O)N(C)C2CCN(C)CC2)cc1 (stereo not drawn),-26.7
23,CC(C)NC(=O)CCCn1cc([N+](=O)[O-])cn1,9.98
24,O=C(NCC1CCCO1)c1cccc2ccccc12 (stereo not drawn),21.2
